# Measurements reported in article PMC6919601, “Identification of Plasmodium dipeptidyl aminopeptidase allosteric inhibitors by high throughput screening” (PLoS ONE, 2019).
# Among all 110,000 compounds or so, about 230 (0.21%) showed an effect of 50% or more. This is one part of the list.
# Target: DPAP1 (Plasmodium falciparum, UniProt Q8IIJ9)
# Test: primary screen, percent inhibition; read by cleavage of a fluorogenic dipeptide substrate; higher = more effect of the substance
# Parameters: species or system P. falciparum D10 trophozoite lysates; single well
# 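Note: 30 min substrate incubation versus DMSO and 10 µM JCP410 controls.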
# Chain of DPAP1 (Q8IIJ9 whole entry, looked up): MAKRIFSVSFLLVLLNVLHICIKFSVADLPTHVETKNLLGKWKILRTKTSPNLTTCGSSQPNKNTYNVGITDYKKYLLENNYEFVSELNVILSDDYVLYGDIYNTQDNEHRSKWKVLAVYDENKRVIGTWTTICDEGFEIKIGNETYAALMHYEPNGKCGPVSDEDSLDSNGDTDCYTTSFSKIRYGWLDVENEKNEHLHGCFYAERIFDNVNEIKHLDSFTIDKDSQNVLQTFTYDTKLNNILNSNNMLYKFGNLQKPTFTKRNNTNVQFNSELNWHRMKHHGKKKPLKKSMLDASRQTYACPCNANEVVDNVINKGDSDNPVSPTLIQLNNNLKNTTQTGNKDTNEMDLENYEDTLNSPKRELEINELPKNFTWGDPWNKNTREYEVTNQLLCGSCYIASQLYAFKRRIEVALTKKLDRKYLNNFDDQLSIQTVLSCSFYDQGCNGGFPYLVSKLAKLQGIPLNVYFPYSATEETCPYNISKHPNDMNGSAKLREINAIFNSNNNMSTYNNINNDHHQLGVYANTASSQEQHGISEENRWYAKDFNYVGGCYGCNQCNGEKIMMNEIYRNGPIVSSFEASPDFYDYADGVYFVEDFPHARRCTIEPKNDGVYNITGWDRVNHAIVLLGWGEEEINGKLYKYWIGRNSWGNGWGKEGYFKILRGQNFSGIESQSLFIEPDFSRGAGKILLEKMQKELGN
row,Structure (SMILES),% Inhibition @ 10 uM [%]
1,CC1=C(C(=O)Nc2ccc(C)cc2)C(c2ccccc2Br)NC(=O)N1 (centres unmarked),-3.01
2,COc1cccc(NC(=O)CCCOc2ccc(C(C)(C)C)cc2)c1,-1.26
3,CCSc1nc2sc3c(c2c(=O)n1Cc1ccccc1)CCC3,-9.52
4,CC(=O)Nc1c(N2CCCC2)cnn(-c2ccccc2)c1=O,2.41
5,COc1nc(-c2ccccc2)cc(-c2ccc(F)cc2)c1C#N,1.52
6,Cc1nc(NC(=O)C23CC4CC(CC(C4)C2)C3)sc1C(=O)N(C)C,-1.2
7,Cc1sc(NC(=O)c2ccnn2C)c(C#N)c1-c1ccccc1,-3.77
8,Cc1ccc2nc(O)c3cc(C(=O)N(C)Cc4ccccc4)sc3c2c1,-3.44
9,Clc1ccc(Cc2nc(-c3ccncc3)no2)cc1,-1.62
10,O=C(c1ccccc1)c1cc2c(cc1Cl)OCCO2,-4.97
11,COc1cc(=O)n(C)c2c(OCC3OC(C)(C)OC3(C)C)cccc12 (centres unmarked),-2.7
12,CC1(C)CC2=Nc3ncnn3C(c3ccc(Br)cc3)C2=C(O)C1 (centres unmarked),1.73
13,O=C(CN1C(=O)c2ccccc2C1=O)c1ccccc1,2.26
14,Cc1cccc(NC(=O)CSc2nc(N)cc(N)n2)c1C,-5.66
15,CCN(CC)CC#CC(C)(O)c1ccccc1 (centres unmarked),-4.31
16,O=C(Cn1c(=O)c2cccn2c2cccnc21)NCc1ccc2c(c1)OCO2,7.39
17,Cc1cc(OCC(=O)Nc2ccc(CN3CCOCC3)cc2)ccc1Cl,-6.59
18,COC(=O)c1cc(S(=O)(=O)N2CCC(C)CC2)c[nH]1,-0.825
19,C=C(C)CSc1nc(N)c2c3c(sc2n1)CCC3,4.37
20,CC(C)CCNC(=O)C1c2ccccc2Oc2ccccc21,-1.36
21,Cc1cc(C)c(NC(=O)NC(=O)c2cccc(OC(F)(F)C(F)F)c2)c(C)n1,-1.04
22,Cc1cc(OCCCN2CCCCC2)ccc1Cl,-5.62
23,Cc1c(Cl)cccc1/N=C1/SC(CC(=O)Nc2ccc(C(=O)O)cc2)C(=O)N1C (centres unmarked),6.03
24,CCOCCCNC(=O)C(C)Sc1nc2nc(C)cc(C)n2n1 (centres unmarked),2.79
25,COc1cccc(OC)c1C(=O)Nc1ccccn1,-3.04
26,CC(C)(C)c1ccc(C(=O)NCC2CCCO2)cc1 (centres unmarked),4.38

row,Structure (SMILES),% Inhibition @ 10 uM [%]
1,COc1cccc(NC(=O)CN(C2CCCCC2)S(=O)(=O)c2ccc(F)cc2)c1,-3.68
2,CCOC(=O)c1snc(-c2ccc(Cl)cc2)c1N,5.54
3,COc1cccc(Cn2c(Oc3cccc(OC)c3)nc3c2c(=O)n(C)c(=O)n3C)c1,5.17
4,[O-][n+]1ccccc1C(O)CN1CCN(c2cccc(Cl)c2)CC1 (centres unmarked),-5.84
5,O=C(NCc1cccnc1)c1cccc(Br)c1,3.74
6,CC(=O)c1c(C)oc2ccc(O)c(CN3CCOCC3)c12,1.23
7,CCN(CC)c1ccc(NC(=O)c2cccc(C)c2)c(C)c1,-9.31
8,CCN(CC)C(=O)C(C)N(C#N)c1nc(NC(C)C)nc(NC(C)C)n1 (centres unmarked),4.55
9,C(=C\c1ccccc1)/CN1CCN(C2CCN(CCc3ccccc3)CC2)CC1,97.7
10,O=C(O)COCC(=O)Nc1cccnc1,0.776
11,O=S(=O)(N1CCCCC1)N1CCCN(S(=O)(=O)N2CCCCC2)CC1,4.94
12,O=C(O)c1ccc(-n2cc(CNCCc3ccc(Cl)cc3)c3ccccc32)s1,4.79
13,Cc1ccc(CN2CCN(C(=S)NCC(=O)NCc3cccs3)CC23CCCCC3)cc1,-4.97
14,COc1ccc(OC)c(C2=NOC(C(=O)NCCc3ccc(OC)c(OC)c3)C2)c1 (centres unmarked),2.85
15,COc1ccc(CCN2C(=S)NC3CC2(C)Oc2ccccc23)cc1OC (centres unmarked),-4.19
16,COC(=O)c1cc(C)sc1N,3.36
17,Cc1ccc(CN2CCC(O)(c3ccc(Br)cc3)CC2)s1,-1.21
18,Cc1ccc(S(=O)(=O)/C(C#N)=C/c2sccc2C)cc1,6.22
19,Cc1ccc(-c2csc3ncn(CC(=O)Nc4cccc5ccccc45)c(=O)c23)cc1,-2.05
20,CN1CCCN(CCCc2ccccc2)CC1,0.217
21,Cc1ccc(C2CC(c3ccccc3C)n3nnnc3N2)cc1 (centres unmarked),0.0842
22,COc1ccc(CNCc2cccc(OC)c2OC)cc1,-2.14
23,CC1CCCN(S(=O)(=O)c2ccc(F)cc2)C1 (centres unmarked),-3.04
24,CCN1CCC(NCCC2=CCCCC2)CC1,0.217
25,CS(=O)(=O)N(CC(=O)Nc1cccc(Cl)c1)c1cccc(Cl)c1,-3.94
26,CCC(C(=O)NC(C)C)n1nc(C)c2c(C)n(-c3ccc(C)cc3)nc2c1=O (centres unmarked),-3.81

row,Structure (SMILES),% Inhibition @ 10 uM [%]
1,O=C(Cn1ncc2c1-c1ccccc1OC2)Nc1nccs1,-0.692
2,COc1ccc(NC(=O)COc2ccc(C)cc2)cc1Cl,7.09
3,NS(=O)(=O)c1ccc(-c2ccc(/C=C3/C(=O)NN(c4cccc(Cl)c4)C3=O)o2)cc1,3.76
4,CC(C)(C)C1(C)O[C@@H](C(N)=O)[C@H](C(N)=O)O1,0.035
5,COCC(=O)Nc1ccc(C(=O)c2ccccc2)cc1,-0.884
6,CCCNC(=O)c1ccc(CN(c2ccccc2)S(C)(=O)=O)cc1,-1.98
7,CCOc1ccccc1NC(=O)c1c(OC)cccc1OC,-8.01
8,CCc1ccc2oc(C(=O)N(Cc3sccc3C)C3CCS(=O)(=O)C3)c(C)c2c1 (centres unmarked),5.29
9,COc1cc(C(=O)Nc2nc(C(F)(F)F)c(-c3ccccc3)s2)cc(OC)c1OC,-2.91
10,CCN1CCN(c2ccc(Nc3ccnc4cc5ccccc5cc34)cc2)CC1,7.87
11,COc1ccccc1-c1c(C)nn2c(NCc3ccc(C)cc3)cc(C)nc12,-3.7
12,COC(=O)c1cc(S(=O)(=O)NCc2cccnc2)cn1C,3.92
13,CCCC(=O)Nc1ccc(Cl)c(NC(=O)COc2cccc3ccccc23)c1,-8.88
14,CC1CCN(C2=NC(=O)/C(=C\c3ccc(N(C)C)cc3)S2)CC1,7.49
15,Cc1ccc(-n2c(C)nc3ccsc3c2=O)cc1,-1.12
16,Cc1noc2ncn(CC(=O)NCc3ccco3)c(=O)c12,1.06
17,COc1ccc(-c2ncnn2-c2cccc(C(F)(F)F)c2)cc1OC,-3.6
18,COc1ccc(S(=O)(=O)N2CCN(c3cccc(Cl)c3)CC2)cc1Br,-12
19,O=C(NCCNC(=O)c1ccc2c(c1)OCO2)c1ccc2c(c1)OCO2,4.11
20,Cc1nc2cc(-c3ccc4[nH]c(C)nc4c3)ccc2[nH]1,-5.47
21,Cc1ccc(-n2nc(C)c3c2OC(N)=C(C#N)C3c2cccc(F)c2)cc1 (centres unmarked),-0.941
22,COc1ccc(/C=C/C2=CC(C)(C)NC(S)=N2)c(OC)c1,-3.39
23,CCOCCCNC(=O)Cn1nc(-c2ccccc2)ccc1=O,-2.99
24,CCOC(=O)c1sc2ncnc(N3CCN(Cc4ccc5c(c4)OCO5)CC3)c2c1C,-3.23
25,CCOc1cc(C(=O)NC(C)c2ccc(CC)cc2)cc(OCC)c1OCC (centres unmarked),-4.91
26,O=C(NCCc1nc2ccccc2n1Cc1cccc2ccccc12)c1ccco1,-2.99

row,Structure (SMILES),% Inhibition @ 10 uM [%]
1,Cc1cc(C)n(-c2nc3ccccc3nc2N2CCOCC2)n1,3.98
2,Cc1sc(NC(=O)c2ccc(-c3ccccc3)cc2)c(C(N)=O)c1C,5.42
3,CCN1CC(=O)Nc2c(sc3nc(C)cc(C)c23)C1=O,-0.992
4,Cc1ccccc1OCCCCn1c(C)nc2ccccc21,2.73
5,COc1ccc(Nc2nc(OC(C(F)(F)F)C(F)(F)F)nc(N3CCCCC3)n2)cc1,1.49
6,O=C1CC(C2CCCO2)C(=O)N1Cc1ccccc1 (centres unmarked),-3.77
7,NC1=NC(=O)CC(c2ccccc2Cl)N1 (centres unmarked),-4.46
8,O=C(C1=C(O)C(=O)N(CCO)C1c1cccc(F)c1)c1ccc(Cl)cc1 (centres unmarked),0.727
9,O=C(O)c1ccc(N2C(=O)c3ccccc3C2=O)cc1,-2.77
10,O=C(Nc1ccc(S(=O)(=O)Nc2nccs2)cc1)c1cccs1,-2.98
11,CCOc1ccccc1N(CC(=O)Nc1c(C)cc(C)cc1C)S(C)(=O)=O,-3.65
12,CN1CCC(N2CCC(O)(c3ccc(Br)cc3)CC2)CC1,1.57
13,OC1=C2C(=Nc3ccccc3SC2c2ccc(Br)cc2)c2ccccc21 (centres unmarked),8.67
14,C=CCSc1nc(N)c2c3c(sc2n1)COC(C(C)C)C3 (centres unmarked),-3.5
15,Cn1c(=O)c2ncn(CC(=O)Nc3ccc4oc(-c5ccc(Cl)cc5Cl)nc4c3)c2n(C)c1=O,-3.69
16,O=C(NCc1nnc(O)c2ccccc12)c1cc2ccccc2oc1=O,3.35
17,COc1ccc(C(C)C)cc1S(=O)(=O)Nc1ccc(Cl)cn1,6.47
18,Cc1ccc(NC(=O)C2COc3ccccc3O2)cc1 (centres unmarked),-4.65
19,COc1ccc(CCC(=O)Nc2cc(Cl)ccn2)cc1,5.17
20,Cc1cc(C)n(C(=O)CCCOc2ccc(Cl)cc2Cl)n1,-4.5
21,COc1ccc2[nH]cc(CCN=C(N)N)c2c1,-5.52
22,CC(CNC(=O)COCc1cc(-c2ccc3c(c2)OCO3)on1)c1ccccc1 (centres unmarked),-2.69
23,Cc1c(O)cc2n(c1=O)-c1ccc(Cl)cc1C2(C)C,4
24,COc1ccc(C2C(C#N)=C(N)Oc3c2sc2ccccc32)cc1 (centres unmarked),2.01
25,COc1ccccc1-c1cc(N)n(S(=O)(=O)c2cccc3nsnc23)n1,-0.495
26,COCCO/C(O)=C1\C(C)=NC2=C(C(=O)CC(C)(C)C2)C1c1ccccc1OCc1ccccc1 (centres unmarked),2.45
